# Experimental data reported in PubChem BioAssay AID1346428 (National Center for Advancing Translational Sciences (NCATS), 2018).
# In all, about 48,000 compounds went through this assay and about 1,200 (2.5%) were called active. The inconclusive results got no clear call from the source; some entries with a clear call stand among them for comparison.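 How the source made its calls: active means activation of at least 60% and not above a set upper limit (about 1 call in 100 departs from these limits); inconclusive means activation of 40% to 60%, or above that upper limit; inactive means activation under 40%.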
# Biological target: Probable G-protein coupled receptor 32 (Homo sapiens) (UniProt O75388)
# Assay: qHTS for Agonists of Human Resolvin D1 Receptor DRV1; further: 0% is about no effect
# Conditions: CHO-K1 GPR32 beta-arrestin PathHunter luminescence, 90 min; at 76.9 µM; active compounds read high; zero percent set by DMSO-only wells
# Method in brief: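 Step 1: seed CHO-K1 GPR32 beta-arrestin cells, 2,500/well, overnight at 37 °C. Step 2: add compounds, 90 min at 37 °C. Step 3: detection reagent, 1 h ambient, then luminescence.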
# UniProt O75388, sequence (O75388 whole entry, looked up): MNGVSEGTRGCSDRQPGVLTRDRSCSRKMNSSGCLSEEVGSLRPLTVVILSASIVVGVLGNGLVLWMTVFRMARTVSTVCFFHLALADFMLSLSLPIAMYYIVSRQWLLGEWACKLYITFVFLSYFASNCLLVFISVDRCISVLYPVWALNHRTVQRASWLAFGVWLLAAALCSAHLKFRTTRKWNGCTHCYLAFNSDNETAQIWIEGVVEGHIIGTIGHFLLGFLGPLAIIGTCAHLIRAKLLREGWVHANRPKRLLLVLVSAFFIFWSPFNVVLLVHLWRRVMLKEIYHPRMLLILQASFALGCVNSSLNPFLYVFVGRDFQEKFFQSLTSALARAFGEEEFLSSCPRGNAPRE
row,Compound,activation
1,Cc1ccc(NC(=O)Nc2ccc3snnc3c2)cc1C,active: 65.6%
2,Cc1ccc(C(=O)NCC(c2cccs2)S(=O)(=O)c2cccs2)cc1 (configuration not stated),active: 74.2%
3,CN(CC(=O)Nc1cccc(C(F)(F)F)c1)S(=O)(=O)c1ccc2[nH]c3c(c2c1)CCCC3,inconclusive: 124%
4,COc1ccc(N2CCN(CC(O)COc3ccccc3C(C)(C)C)CC2)cc1 (configuration not stated),inconclusive: 123%
5,OC1(c2ccc(Cl)c(C(F)(F)F)c2)CCN(CCCC(c2ccc(F)cc2)c2ccc(F)cc2)CC1,active: 64.5%
6,Cc1ccc(-c2nc3ncccc3o2)cc1NC(=O)COc1ccc(C(C)C)cc1,inconclusive: 136%
7,CCn1cc(C(=O)N2CCN(c3ccccc3)CC2)c(=O)c2cc(S(=O)(=O)N(C)C3CCCCC3)ccc21,inactive: 25.1%
8,CCOc1ccc(-c2csc3ncnc(Nc4cccc(O)c4)c23)cc1,inconclusive: 57.3%
9,O=C(CCn1cnc2onc(-c3ccc(F)cc3)c2c1=O)Nc1cccc(C(F)(F)F)c1,inconclusive: 59.2%
10,CCN(CC)C(=O)Cn1c(SCC(=O)Nc2ccc(F)cc2)nc2ccccc21,inactive: 16.8%
11,CCCCCn1c(CCCNC(=O)c2ccccc2OC)nc2ccccc21,inconclusive: 51.3%
12,Cc1ccc(-c2nnc3ccccc3c2C(=O)Nc2ccc(F)cc2)cc1,inconclusive: 57.9%
13,CCCCNc1ccc(C(=O)OCCOCCOCCOCCOCCOCCOCCOCCOCCOC)cc1,inconclusive: 58.4%
14,CC(Nc1oc(-c2ccc(COc3ccccc3)o2)nc1C#N)c1ccccc1 (configuration not stated),inconclusive: 184%
15,CCCCOc1cccc(C2c3c(-c4cc(C)ccc4O)n[nH]c3C(=O)N2CCOC)c1 (configuration not stated),inconclusive: 52.5%
16,COc1ccc(-c2noc(CSc3nnc(Cc4ccccc4)n3-c3ccc(F)cc3)n2)cc1,inactive: -33.1%
17,CCN(CC)CCCNC(=O)c1ccc2c(c1)sc1nc(-c3ccc(C)cc3)cn12,inactive: -7.68%
18,Cc1ccc(C2C=C(c3ccccc3)Nc3nc(NS(C)(=O)=O)nn32)cc1 (configuration not stated),inconclusive: 55.5%
19,CC(C)c1ccc(NC(=O)Cn2nnc(C(=O)NCc3ccc4c(c3)OCO4)c2N)cc1,inactive: -7.75%
20,CC(=O)N1c2ccc(S(=O)(=O)N3CCN(c4cccc(Cl)c4)CC3)cc2CC1C (configuration not stated),inactive: -7.33%
21,CC(C)NC(=O)Cn1nc(N2CCN(c3ccccc3)CC2)ccc1=O,inactive: -16.6%

row,Compound,activation
1,O=c1cc[nH]c(=S)[nH]1,active: 67.7%
2,Cc1ccc(C)c(Cn2c(=O)cc(C)c3c(C)nn(C)c32)c1,inconclusive: 145%
3,Cc1ccc(-n2ncc3c(N4CCN(C)CC4)ncnc32)cc1C,active: 74.9%
4,COc1ccc(CCC(=O)NCCc2csc(-c3ccc(Cl)cc3)n2)cc1,active: 65.3%
5,CN(Cc1ccco1)S(=O)(=O)c1nnc(NC(=O)c2cccc(Cl)c2)s1,inconclusive: 53.3%
6,O=C(NCC(c1ccccc1)c1ccccc1)c1nn(-c2ccccc2F)nc1CO,inactive: -16%
7,Cc1cccc(CCNC(=O)C2CCCN(S(=O)(=O)c3ccc4c(c3)oc(=O)n4C)C2)c1 (configuration not stated),inconclusive: 54.5%
8,CCC(C(=O)OCCN(CC)CC)c1ccccc1 (configuration not stated),inactive: 1.87%
9,Cc1ccc(NC(=O)c2nc(-c3ccncc3)no2)c(Cl)c1,inactive: 5.15%
10,COc1ccc(CC(=O)NCCc2sc(-c3cccc(F)c3)nc2C)cc1,active: 98%
11,O=C(Nc1nnc(S(=O)(=O)N2CCCc3ccccc32)s1)c1ccccc1,inconclusive: 55.4%
12,COc1ccc(-c2noc(C3CC(=O)N(c4ccccc4)C3)n2)c(OC)c1 (configuration not stated),inconclusive: 51.9%
13,O=S(=O)(NCC(Nc1ccc(Cl)cc1)c1ccccc1)c1ccccc1 (configuration not stated),active: 109%
14,Fc1ccc(-c2noc3ncnc(NCC4CCN(Cc5ccc(Cl)cc5)CC4)c23)cc1,inconclusive: 50.6%
15,Cc1nc(-c2ccc(S(=O)(=O)NCc3ccc(N(C)C)cc3)cc2)co1,inconclusive: 53.6%
16,O=C(NCC1CN(c2ccc(N3CCOCC3=O)cc2)C(=O)O1)c1ccc(Cl)s1 (configuration not stated),inconclusive: 59.8%
17,CCn1cc2nc(SCc3cc(C)ccc3C)n(Cc3ccc(OC)cc3)c(=O)c2n1,inconclusive: 205%
18,CCn1cc(C(=O)NCc2ccc(C)cc2)c(=O)c2cc(S(=O)(=O)N3CCc4ccccc4C3)ccc21,active: 70.1%
19,CCc1ccc(N(C)S(=O)(=O)c2ccc3[nH]cc(C(=O)NCC4CCCO4)c(=O)c3c2)cc1 (configuration not stated),active: 110%
20,Cc1nc2c(C(=O)NCCc3ccc(Cl)cc3)c[nH]n2c(=O)c1Cc1ccc(Cl)cc1,inactive: 17.4%
21,Cc1ccc(C2CC(=O)Nc3cc4c(cc32)OCCO4)cc1 (configuration not stated),active: 62.4%
